Reference: the supplement of paper PMC10338343
± gives the standard deviation. Whole data set: some 3,000 sequences, median “pre-steady-state target cleavage rate” near 0.0079, cut for the highest 2% near 0.2. Only a part is listed here, and it is no random draw.

The sequences below were run on MILI (PIWIL2) piRISC loaded with piRNA #2 (26 nt) (assay: pre-steady-state target cleavage rate (min^-1); MIWI and MILI are mouse PIWI proteins and EfPiwi is from a freshwater sponge; tags in brackets are library labels; higher = faster piRNA-guided slicing of the target). Conditions: guide: piRNA #2 5'p-UUAGGUAACCCAGUAGAUCCAGAGGA; auxiliary factor: 500 nM mouse GTSF1.
Procedure, shortened: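 The pre-steady-state cleavage rate was derived from a burst-and-steady-state fit of Cleave-'n-Seq data. For these assays, 1 nM active affinity-purified piRISC loaded with a single synthetic guide was mixed with […] a transcribed, DNA-blocked target RNA library in HEPES–potassium acetate buffer at 33 °C, with or without 500 nM GTSF1 partner protein, for 0–8 or 0–960 min. Sequencing counts of uncleaved targets were normalised to depth and to weakly complementary targets, and k3 was capped at 0.0001 min^-1 after three trials were pooled.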
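Also: 1 nM active piRISC with 0.1 nM target library at 33 °C single turnover.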

Row | Sequence | pre-steady-state target cleavage rate
1 | CUUAACCUGUGGAUCUUCUGGGUUACCUAA | 0.0605 ± 0.015
2 | CUUAACCACUGGAUCUACUGGGUUACCAAA | 0.0546 ± 0.013
3 | CUUAACCUCUGGAUCUAGUGGGAUACCUAA | 0.0146 ± 0.0055
4 | CUUAUCCUCUGGAUCUACUGCGUUACCUAA | 0.0178 ± 0.0049
5 | CUUAUCCUCAGGAUCUACUGGGUAACCUAA | 0.0299 ± 0.0094
6 | CUUAAGCUCUGCAUCAACUGGGUUACCUAA | 0.0246 ± 0.009
7 | CUUAAGGUCUGGAUCUACUGGGUUACGAAA | 0.0388 ± 0.014
8 | CUUAAGGAGUGGAUCUACUGGGUUCACCUAA | 0.0116 ± 0.0061
9 | CUUAAACUCUGGAUCUACUGGGUUACCUAA | 0.0428 ± 0.013
10 | CUUAAGGUCUGGAUCUGCUGGGUUACCUAA | 0.0379 ± 0.0099
11 | CUUAAGCUCUGGAUCUACUGGGUUACUUAA | 0.0872 ± 0.012
12 | CUUAAGCUCUGCAACUACUGGGUUACCUAA | 0.0388 ± 0.0098
13 | CUUAUCCUCUUGAUCUACUGGGUUACCUAA | 0.192 ± 0.029
14 | CUUAACCACUGGAUGUACUGGGUUACCUAA | 0.0847 ± 0.016
15 | CUUAAGGAGAGGAUCUUCUGGGUUACCUAA | 0.00554 ± 0.0042
16 | CUUAACCUCACCAUCUACUGGGUUACCUAA | 0.0404 ± 0.02
17 | CUUAAGGAGUGGAUCUACUGGGUCUACCUAA | 0.00823 ± 0.0039
18 | CUUAACCUCUGGAUCUACUGGGUUAGCUAA | 0.112 ± 0.022
19 | CUUAUCCUCUGGAUCUACAGGGUUACCUUA | 0.115 ± 0.019
20 | CUUAAGGUCUGCGAUCUACUGGGUUACCUAA | 0.0524 ± 0.012
21 | CUUAAGGUCUGGAACAACUGGGUUACCUAA | 0.0187 ± 0.01
22 | CUUAAGGUCUGGAUUUACUGGGUUACCUAA | 0.0923 ± 0.016
23 | CUUAACGUCUGGAUCUACUGGGUAACCUAA | 0.0379 ± 0.011
24 | CUUAUCCACUGGAUCUACAGGGUUACCUAA | 0.0952 ± 0.011

Row | Sequence | pre-steady-state target cleavage rate
25 | CUUAUCACUCUGGAUCUACUGGGUUACCUAA | 0.114 ± 0.03
26 | CUUAAGGAGUGGAUCUAGUGGGUUACCUUA | 0.0138 ± 0.0059
27 | CUUAAGGAGAGGAUCUACAGGGUUACCUAA | 0.0177 ± 0.0055
28 | CUUAAGGUCUCGAUCAACUGGGUUACCUAA | 0.0194 ± 0.0077
29 | CUUAUCCUCUGGAUCUACUGGGUUACCUUAA | 0.128 ± 0.026
30 | CUUAAGGACUGGUUCUACAGGGUUACCUAA | 0.044 ± 0.012
31 | CUUAAGCUCUGCAUCUACUGGGUUUCCUAA | 0.0656 ± 0.022
32 | CUUAUCCUCUUGGAUCUACUGGGUUACCUAA | 0.19 ± 0.052
33 | CUUAAGGUCUCGAUCUUCUGGGUUACCUAA | 0.0355 ± 0.011
34 | CUUAACCUCCUGGAUCUACUGGGUUACCUAA | 0.108 ± 0.025
35 | CUUAACCUCUGGAUCUACACCGUUACCUAA | 0.00418 ± 0.0037
36 | CUUAACCUCUGGAUCUUCUGGGUUACGUAA | 0.0345 ± 0.012
37 | CUUAAGCUCUGGAUCAACUGGGUUAGCUAA | 0.0277 ± 0.0074
38 | CUUAACCUCUGGAUCUACUGGGUUACCAUA | 0.127 ± 0.027
39 | CUUAUCCUCAGGAUCUUCUGGGUUACCUAA | 0.0611 ± 0.014
40 | CUUAAGCUCUGGUUCUUCUGGGUUACCUAA | 0.1 ± 0.023
41 | CUUAAGGAGUGGAUCUACUGGGUUAUCCUAA | 0.0232 ± 0.0097
42 | CUUAAGCACUGGAUCUACAGGGUUACCUAA | 0.0967 ± 0.015
43 | CUUAAGCUCUGCAUCUAGUGGGUUACCUAA | 0.0412 ± 0.0092
44 | CUUAAGCACUGGAUCUACUGGGUUUCCUAA | 0.0938 ± 0.03
45 | CUUAUCCUCUGGUAUCUACUGGGUUACCUAA | 1.05 ± 0.33
46 | CUUAAGCUCUGGAUCUACUGGGUUACCUAAA | 0.0569 ± 0.014
47 | CUUAAGGAGAGGUUCUACUGGGUUACCUAA | 0.0054 ± 0.0035
48 | CUUAACCUCUGGAUCUACUGGGUUCCCUAA | 0.179 ± 0.071

Row | Sequence | pre-steady-state target cleavage rate
49 | CUUAAGGUCUGGAUCUUCUGGGUUUCCUAA | 0.0147 ± 0.0052
50 | CUUAAGGUCUGGUAGUACUGGGUUACCUAA | 0.0114 ± 0.0091
51 | CUUAAGGAGUGGAUCUACUGGGGUACCUAA | 0.0109 ± 0.0048
52 | CUUAAGGAGACCUACUACUGGGUACCUAA | < 0.0001
53 | CUUAAGCUCUGGAAGUACUGGGUUACCUAA | 0.0778 ± 0.015
54 | CUUAAGCUCUGCAUCUACUGGGAUACCUAA | 0.0314 ± 0.011
55 | CUUAACCUCUGGAUCUAGUGGGUUACGUAA | 0.0297 ± 0.01
56 | CUUAAGCUCUGGAUCUACUGGGUAACCUAA | 0.0543 ± 0.014
57 | CUUAAGCUGUGGAUCUACUGGGUUACCUAA | 0.0553 ± 0.018
58 | CUUAUCCAGAGGAUCUACUGGGUUACCUAA | 0.0096 ± 0.0041
59 | CUUAUCUCUGGAUCUACUGGGUUACCUAA | 0.0751 ± 0.02
60 | CUUAAGGACUGGAUCUACUGGGUUACCUUAA | 0.0243 ± 0.014
61 | CUUAAGGUCUGGAUGUUCUGGGUUACCUAA | 0.0416 ± 0.018
62 | CUUAACCUCUGGAUCUACUGGAGUUACCUAA | 0.00448 ± 0.0032
63 | CUUAUCCUGUGCAUCUACUGGGUUACCUAA | 0.194 ± 0.038
64 | CUUAACCUGUGGAUCUACAGGGUUACCUAA | 0.0832 ± 0.013
65 | CUUAACCUCUGAAUCUACUGGGUUACCUAA | 0.0822 ± 0.02
66 | CUUAUCCUCUGGAUCUACUGCGUUACGUAA | 0.00432 ± 0.0032
67 | CUUAACCUCUGGAUCUACUGGGUUACAUAA | 0.084 ± 0.018
68 | CUUAUCCUCUGGAUCUAGUGGGUUACCUUA | 0.0726 ± 0.012
69 | CUUAAGCUCUGGAUCGUACUGGGUUACCUAA | 0.00558 ± 0.0047
70 | CUUAAGCUCUGGAUCUACUGGGUUACGAUA | 0.0629 ± 0.012
71 | CUUAUCCACUGGAUCUUCUGGGUUACCUAA | 0.0694 ± 0.012
72 | CUUAAGGUCUGGAUCUUGAGGGUUACCUAA | 0.00395 ± 0.0035
